Columns and labels:
Assay type in all cases: in vivo
[1] = system: Alternaia brassicicola; test: Test Example C: Alternaria sooty spot on cabbage; conditions: Alternaria sooty spot on cabbage; control value=100{1-(n/3)}
Excerpt: [Test Example C] Alternaria Sooty Spot on Cabbage
Seeds of a test plant (cabbage variety: Shikidori) were planted followed by cultivating until the cotyledons extended.

[2] = system: Blumeria graminis f sp. hordei; test: Test Example D: Powdery mildew on barley; conditions: Powdery mildew on barley; control value=100{1-(n/3)}
Excerpt: [Test Example D] Powdery Mildew on Barley
After the sprayed dilutions were dried, conidia of Blumeria graminis f sp. hordei were inoculated to the plants by shaking off.

[3] = system: Botrytis cinerea; test: Test Example B: Gray mold on tomato; conditions: Gray mold on tomato; control value=100{1-(n/3)}
Excerpt: [Test Example B] Gray Mold on Tomato
Seeds of a test plant (tomato variety: Oogata Fukuju) were planted followed by cultivating until three to five first leaves (true leaves) appeared.

[4] = system: Puccinia recondita; test: Test Example E: Brown rust on wheat; conditions: Brown rust on wheat; control value=100{1-(n/3)}
Excerpt: [Test Example E] Brown Rust on Wheat

[5] = system: Plasmopara viticola; test: Test Example G: Downy mildew on vine; conditions: Downy mildew on vine; 250 ppm spray, 2.5 ml/pot; evaluated 7-10 days after inoculation
Excerpt: [Test Example G] Downy Mildew on Vine
Seeds of a test plant (grape variety: Neomuscat) were planted followed by cultivating until three to four first leaves appeared. […] After the sprayed dilutions were dried, a zoosporangia suspension (1-2×10^4 zoosporangia/ml) of Plasmopara viticola was inoculated to the plants by spraying.

Structure (SMILES)	Test C (control value class) [1]	Test D (control value class) [2]	Test B (control value class) [3]	Test E (control value class) [4]	Test G (control value class) [5]
CCn1c(-c2c(F)cc(F)cc2F)c(-c2cc(OCOC)ccc2Cl)cc(Cl)c1=O [Compound 795]	H (H shows more than 50% of control values)	H (H shows more than 50% of control values)	H (H shows more than 50% of control values)	H (H shows more than 50% of control values)	H (H shows more than 50% of control values)
CCOc1ccc(Cl)c(-c2cc(Cl)c(=O)n(CC)c2-c2c(F)cc(OC)cc2F)c1 [Compound 796]	H (H shows more than 50% of control values)	H (H shows more than 50% of control values)	H (H shows more than 50% of control values)	H (H shows more than 50% of control values)	H (H shows more than 50% of control values)
CCn1c(-c2c(F)cc(F)cc2F)c(-c2cc(F)cc(F)c2)cc(Br)c1=O [Compound 797]	H (H shows more than 50% of control values)	H (H shows more than 50% of control values)	H (H shows more than 50% of control values)	H (H shows more than 50% of control values)	L (L shows 50% or less of control values)
CCn1c(-c2c(F)cc(OC)cc2F)c(-c2cc(F)cc(F)c2)cc(Cl)c1=O [Compound 798]	H (H shows more than 50% of control values)	H (H shows more than 50% of control values)	H (H shows more than 50% of control values)	H (H shows more than 50% of control values)	L (L shows 50% or less of control values)
CCn1c(-c2c(F)cc(OC)cc2F)c(-c2cc(F)cc(F)c2)cc(Br)c1=O [Compound 799]	H (H shows more than 50% of control values)	H (H shows more than 50% of control values)	H (H shows more than 50% of control values)	H (H shows more than 50% of control values)	H (H shows more than 50% of control values)
Cn1c(-c2c(F)cc(F)cc2F)c(-c2cc(F)cc(F)c2)ccc1=O [Compound 800]	H (H shows more than 50% of control values)	H (H shows more than 50% of control values)	H (H shows more than 50% of control values)	H (H shows more than 50% of control values)	H (H shows more than 50% of control values)
CCn1c(-c2c(F)cccc2F)c(-c2cc(OCC#N)ccc2Cl)cc(C)c1=O [Compound 801]	H (H shows more than 50% of control values)	H (H shows more than 50% of control values)	H (H shows more than 50% of control values)	H (H shows more than 50% of control values)	H (H shows more than 50% of control values)
CCOc1ccc(Cl)c(-c2cc(C)c(=O)n(CC)c2-c2c(F)cccc2F)c1 [Compound 802]	H (H shows more than 50% of control values)	H (H shows more than 50% of control values)	H (H shows more than 50% of control values)	H (H shows more than 50% of control values)	H (H shows more than 50% of control values)
COc1cc(F)c(-c2c(-c3cc(F)cc(F)c3)ccc(=O)n2C)c(F)c1 [Compound 803]	H (H shows more than 50% of control values)	H (H shows more than 50% of control values)	H (H shows more than 50% of control values)	H (H shows more than 50% of control values)	H (H shows more than 50% of control values)
Cn1c(-c2c(F)cc(F)cc2F)c(-c2cc(F)cc(F)c2)cc(Cl)c1=O [Compound 804]	H (H shows more than 50% of control values)	H (H shows more than 50% of control values)	H (H shows more than 50% of control values)	H (H shows more than 50% of control values)	L (L shows 50% or less of control values)
Cn1c(-c2c(F)cc(F)cc2F)c(-c2cc(F)cc(F)c2)cc(Br)c1=O [Compound 805]	H (H shows more than 50% of control values)	H (H shows more than 50% of control values)	H (H shows more than 50% of control values)	H (H shows more than 50% of control values)	L (L shows 50% or less of control values)
CCn1c(-c2c(F)cc(F)cc2F)c(-c2cccc(O)c2Cl)cc(Cl)c1=O [Compound 806]	H (H shows more than 50% of control values)	H (H shows more than 50% of control values)	H (H shows more than 50% of control values)	H (H shows more than 50% of control values)	H (H shows more than 50% of control values)
COc1cc(F)c(-c2c(-c3cc(F)cc(F)c3)cc(Cl)c(=O)n2C)c(F)c1 [Compound 807]	H (H shows more than 50% of control values)	L (L shows 50% or less of control values)	H (H shows more than 50% of control values)	H (H shows more than 50% of control values)	L (L shows 50% or less of control values)
COc1cc(F)c(-c2c(-c3cc(F)cc(F)c3)cc(Br)c(=O)n2C)c(F)c1 [Compound 808]	H (H shows more than 50% of control values)	L (L shows 50% or less of control values)	H (H shows more than 50% of control values)	H (H shows more than 50% of control values)	L (L shows 50% or less of control values)
CCOc1cccc(-c2cc(Cl)c(=O)n(CC)c2-c2c(F)cc(F)cc2F)c1Cl [Compound 809]	H (H shows more than 50% of control values)	L (L shows 50% or less of control values)	H (H shows more than 50% of control values)	H (H shows more than 50% of control values)	L (L shows 50% or less of control values)
CCn1c(-c2c(F)cc(F)cc2F)c(-c2cccc(OCC#N)c2Cl)cc(Cl)c1=O [Compound 810]	H (H shows more than 50% of control values)	L (L shows 50% or less of control values)	H (H shows more than 50% of control values)	H (H shows more than 50% of control values)	H (H shows more than 50% of control values)
CCn1c(-c2c(F)cc(F)cc2F)c(-c2cccc(OCOC)c2Cl)cc(Cl)c1=O [Compound 811]	H (H shows more than 50% of control values)	L (L shows 50% or less of control values)	H (H shows more than 50% of control values)	H (H shows more than 50% of control values)	L (L shows 50% or less of control values)
CCn1c(-c2c(F)cc(F)cc2F)c(-c2cc(F)cc(F)c2Br)cc(Br)c1=O [Compound 814]	H (H shows more than 50% of control values)	H (H shows more than 50% of control values)	H (H shows more than 50% of control values)	H (H shows more than 50% of control values)	L (L shows 50% or less of control values)
Cn1c(-c2c(F)cc(F)cc2F)c(-c2cc(F)cc(F)c2Br)cc(Cl)c1=O [Compound 816]	H (H shows more than 50% of control values)	H (H shows more than 50% of control values)	H (H shows more than 50% of control values)	H (H shows more than 50% of control values)	L (L shows 50% or less of control values)
CCn1c(-c2c(F)cc(OC)cc2F)c(-c2cc(F)cc(F)c2Br)ccc1=O [Compound 818]	H (H shows more than 50% of control values)	H (H shows more than 50% of control values)	H (H shows more than 50% of control values)	H (H shows more than 50% of control values)	H (H shows more than 50% of control values)

— patent publication US10299477B2 (priority 2015, dated 2019)
